For experiment [1], the target named is K(lysine) acetyltransferase 2A (KAT2A) (human (endogenous in Huh7 and LM3)) (UniProt Q92830). Nature of the experiment: co-IP; endogenous proteins in Huh7 and LM3 cells; IP with anti-SRSF11 and blot for KAT2A, or IP with anti-KAT2A and blot for SRSF11.
In experiment [2] the target is RAD51 (endogenous) (human (endogenous in Huh7 and LM3)) (UniProt Q06609). Briefly: co-IP; Huh7 and LM3 cells overexpressing HA-RAD52 or HA-RAD52^△Ex10; IP with anti-HA or anti-RAD51; HA-RAD52^△Ex10 also with or without Flag-SRSF11.

Amino acid sequences for entries named in this document (tags omitted).
UniProt Q92830: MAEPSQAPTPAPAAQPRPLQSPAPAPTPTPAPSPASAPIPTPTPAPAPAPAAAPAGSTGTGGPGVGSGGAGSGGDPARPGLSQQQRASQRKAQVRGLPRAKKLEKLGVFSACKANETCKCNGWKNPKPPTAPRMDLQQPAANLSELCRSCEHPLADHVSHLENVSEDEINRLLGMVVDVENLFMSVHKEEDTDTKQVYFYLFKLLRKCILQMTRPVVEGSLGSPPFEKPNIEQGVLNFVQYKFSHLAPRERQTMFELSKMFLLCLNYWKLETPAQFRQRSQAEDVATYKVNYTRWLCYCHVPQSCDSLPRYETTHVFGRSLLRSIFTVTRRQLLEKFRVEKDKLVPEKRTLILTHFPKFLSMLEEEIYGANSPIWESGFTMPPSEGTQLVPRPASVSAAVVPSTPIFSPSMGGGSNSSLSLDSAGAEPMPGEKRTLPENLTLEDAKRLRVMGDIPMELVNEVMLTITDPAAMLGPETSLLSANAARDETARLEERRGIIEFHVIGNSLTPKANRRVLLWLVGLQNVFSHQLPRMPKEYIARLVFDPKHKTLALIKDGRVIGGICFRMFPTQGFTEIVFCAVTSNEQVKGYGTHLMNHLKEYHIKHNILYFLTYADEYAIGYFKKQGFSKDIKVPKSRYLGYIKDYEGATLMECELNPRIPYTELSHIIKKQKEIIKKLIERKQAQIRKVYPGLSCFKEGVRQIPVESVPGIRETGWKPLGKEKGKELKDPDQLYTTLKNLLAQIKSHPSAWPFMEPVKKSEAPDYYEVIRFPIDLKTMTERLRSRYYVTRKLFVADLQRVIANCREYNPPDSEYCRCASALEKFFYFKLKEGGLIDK
UniProt Q06609: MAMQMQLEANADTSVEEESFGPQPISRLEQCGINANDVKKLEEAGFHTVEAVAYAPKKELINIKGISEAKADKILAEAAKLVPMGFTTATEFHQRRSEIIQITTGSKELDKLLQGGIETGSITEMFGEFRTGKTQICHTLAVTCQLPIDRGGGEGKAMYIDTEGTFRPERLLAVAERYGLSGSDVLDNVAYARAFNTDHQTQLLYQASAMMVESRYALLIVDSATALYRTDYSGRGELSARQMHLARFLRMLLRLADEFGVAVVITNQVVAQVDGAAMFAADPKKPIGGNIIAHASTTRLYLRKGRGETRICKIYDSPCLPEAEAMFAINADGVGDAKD

Results are given in words; binding and its absence hold for the method and conditions named. Binding seen in cells or lysates may run through a third protein. Some binding calls cover weakened binding; strength is not graded here. For part of these data: Tags and fused reporters may be left off the sequences shown.

B1: serine/arginine-rich splicing factor 11 (SRSF11) (protein, UniProt Q05519 1-484)
chain: MSNTTVVPSTAGPGPSGGPGGGGGGGGGGGGTEVIQVTNVSPSASSEQMRTLFGFLGKIDELRLFPPDDSPLPVSSRVCFVKFHDPDSAVVAQHLTNTVFVDRALIVVPYAEGVIPDEAKALSLLAPANAVAGLLPGGGLLPTPNPLTQIGAVPLAALGAPTLDPALAALGLPGANLNSQSLAADQLLKLMSTVDPKLNHVAAGLVSPSLKSDTSSKEIEEAMKRVREAQSLISAAIEPDKKEEKRRHSRSRSRSRRRRTPSSSRHRRSRSRSRRRSHSKSRSRRRSKSPRRRRSHSRERGRRSRSTSKTRDKKKEDKEKKRSKTPPKSYSTARRSRSASRERRRRRSRSGTRSPKKPRSPKRKLSRSPSPRRHKKEKKKDKDKERSRDERERSTSKKKKSKDKEKDRERKSESDKDVKQVTRDYDEEEQGYDSEKEKKEEKKPIETGSPKTKECSVEKGTGDSLRESKVNGDDHHEEDMDMSD
Regarding B1, in experiment [1], the binding entry is on record as “binds”.

B2: HA-RAD52^△Ex10 (protein, UniProt P43351)
chain: MSGTEEAILGGRDSHPAAGGGSVLCFGQCQYTAEEYQAIQKALRQRLGPEYISSRMAGGGQKVCYIEGHRVINLANEMFGYNGWAHSITQQNVDFVDLNNGKFYVGVCAFVRVQLKDGSYHEDVGYGVSEGLKSKALSLEKARKEAVTDGLKRALRSFGNALGNCILDKDYLRSLNKLPRQLPLEVDLTKAKRQDLEPSVEEARYNSCRPNMALGHPQLQQVTSPSRPSHAVIPADQDCSSRSLSSSAVESEATHQRKLRQKQLQQQFRERMEKQQVRVSTPSAEKSEKTLEDNSEKWAVTPDAGDGVVKPSSRADPAQTSDTLALNNQMVTQNRTPHSVCHQKPQAKSGSWDLQTYSADQRTTGNWESHRKSQDMKKRKYDPS
With B2, in experiment [2], the binding entry is “no binding”.

B3: HA-RAD52 (protein, UniProt P43351 1-418)
chain: MSGTEEAILGGRDSHPAAGGGSVLCFGQCQYTAEEYQAIQKALRQRLGPEYISSRMAGGGQKVCYIEGHRVINLANEMFGYNGWAHSITQQNVDFVDLNNGKFYVGVCAFVRVQLKDGSYHEDVGYGVSEGLKSKALSLEKARKEAVTDGLKRALRSFGNALGNCILDKDYLRSLNKLPRQLPLEVDLTKAKRQDLEPSVEEARYNSCRPNMALGHPQLQQVTSPSRPSHAVIPADQDCSSRSLSSSAVESEATHQRKLRQKQLQQQFRERMEKQQVRVSTPSAEKSEAAPPAPPVTHSTPVTVSEPLLEKDFLAGVTQELIKTLEDNSEKWAVTPDAGDGVVKPSSRADPAQTSDTLALNNQMVTQNRTPHSVCHQKPQAKSGSWDLQTYSADQRTTGNWESHRKSQDMKKRKYDPS
Take B3: the binding result in experiment [2] is reported as “binds”.

Source of the values: publication PMC12592546.
